# Measured values as given in the supplement of paper PMC4604168 (melanoma cell lines).
# Some of the results follow. Repeats are few or missing, and single values can be far off.
# What was measured:
# Experiment in all cases: cell count relative to DMSO control; melanoma cells; higher = more viable cells
# Conditions in all cases: library dose: standard library concentration; 72 h
# [1] = system: G361
# [2] = system: IPC-298
# [3] = system: IST-MEL1
# [4] = system: LB2518-MEL
# [5] = system: LOXIMVI
# [6] = system: MEL-HO
# [7] = system: MZ2-MEL
# [8] = system: MeWo
# [9] = system: RPMI7951
# [10] = system: RVH-421
# [11] = system: SkMel28
# [12] = system: SkMel2
# [13] = system: SkMel30
# [14] = system: SkMel5
# [15] = system: UACC257
# [16] = system: UACC62
# [17] = system: WM115
# [18] = system: WM1716
# [19] = system: WM1745
# [20] = system: WM3526
# 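Also: cells treated in 1,536-well plates, then fixed and DAPI-stained, with nuclei counted from automated high-throughput microscope images.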
Compound,cell count [1],cell count [2],cell count [3],cell count [4],cell count [5],cell count [6],cell count [7],cell count [8],cell count [9],cell count [10],cell count [11],cell count [12],cell count [13],cell count [14],cell count [15],cell count [16],cell count [17],cell count [18],cell count [19],cell count [20]
"C=CCNC1=C2C[C@@H](C)C[C@H](OC)[C@H](O)[C@@H](C)/C=C(\C)[C@H](OC(N)=O)[C@@H](OC)/C=C\C=C(/C)C(=O)NC(=CC1=O)C2=O [Tanespimycin] + CO[C@@H]1[C@H](N(C)C(=O)c2ccccc2)C[C@H]2O[C@]1(C)n1c3ccccc3c3c4c(c5c6ccccc6n2c5c31)C(=O)NC4 [Midostaurin] (first compound 0.01 µM, partner dose 0.4 µM)",38.8%,74.9%,44.2%,68.3%,53.4%,79.2%,79.9%,56.3%,8.53%,77.7%,39.6%,63.9%,87.8%,43.2%,66.9%,43.5%,22.6%,32.6%,17.6%,67.2%
"CS(=O)(=O)CCNCc1ccc(-c2ccc3ncnc(Nc4ccc(OCc5cccc(F)c5)c(Cl)c4)c3c2)o1 [lapatinib] + Cn1cncc1[C@@](N)(c1ccc(Cl)cc1)c1ccc2c(c1)c(-c1cccc(Cl)c1)cc(=O)n2C [tipifarnib] (first compound 4 µM, partner dose 0.05 µM)",70.8%,83.5%,76.2%,60.3%,66%,82.5%,71.3%,71.3%,37.2%,84.3%,81.2%,65.7%,79.4%,45%,101%,44%,54.1%,60.6%,96.5%,82.8%
"CS(=O)(=O)CCNCc1ccc(-c2ccc3ncnc(Nc4ccc(OCc5cccc(F)c5)c(Cl)c4)c3c2)o1 [lapatinib] + CCCS(=O)(=O)Nc1ccc(F)c(C(=O)c2c[nH]c3ncc(Cl)cc23)c1F [PLX4720] (first compound 4 µM, partner dose 0.4 µM)",52.1%,58.8%,79.5%,81.5%,95.8%,65.9%,48.3%,84.6%,82.9%,63.6%,41.6%,69.3%,77.6%,51%,116%,31.3%,84.6%,67.1%,69.1%,40.7%
"CNC(=O)c1cc(Oc2ccc(NC(=O)Nc3ccc(Cl)c(C(F)(F)F)c3)cc2)ccn1 [sorafenib] + CCCS(=O)(=O)Nc1ccc(F)c(C(=O)c2c[nH]c3ncc(Cl)cc23)c1F [PLX4720] (first compound 2 µM, partner dose 0.4 µM)",59.1%,82.9%,90%,77.6%,146%,75.9%,85.5%,75%,62.9%,58.6%,52.9%,69.6%,95%,67.6%,83.3%,47.3%,81.2%,95.8%,65.5%,37.5%
"CN1CCN(c2ccc3nc(-c4c(N)c5c(F)cccc5[nH]c4=O)[nH]c3c2)CC1 [Dovitinib] + CNC(=O)c1cc(Oc2ccc(NC(=O)Nc3ccc(Cl)c(C(F)(F)F)c3)cc2)ccn1 [sorafenib] (first compound 0.5 µM, partner dose 2 µM)",56.7%,45.9%,67.7%,59.3%,89.7%,66.6%,42.1%,32.9%,85.3%,90.7%,56.8%,66.4%,68.6%,57.7%,68.9%,73.9%,67.1%,72.9%,44.5%,72.6%
"CNC(=O)c1cc(Oc2ccc(NC(=O)Nc3ccc(Cl)c(C(F)(F)F)c3)cc2)ccn1 [sorafenib] + O=C(O)c1ccc(-c2c[nH]c3ncc(-c4ccccc4)cc23)cc1C1CCCC1 [GSK650394] (first compound 2 µM, partner dose 0.8 µM)",84.9%,98.8%,81.5%,90.4%,89.8%,78%,121%,74.7%,67.5%,85.6%,62%,83.6%,117%,84.2%,85.3%,107%,82%,94.3%,79%,81.5%
"CN1CCN(c2ccc3nc(-c4c(N)c5c(F)cccc5[nH]c4=O)[nH]c3c2)CC1 [Dovitinib] + Nc1ncn([C@H]2C[C@H](O)[C@@H](CO)O2)c(=O)n1 [decitabine] (first compound 0.5 µM, partner dose 0.5 µM)",68.7%,47.9%,60.7%,53.3%,85.8%,66.8%,47.2%,37.3%,80.8%,99.3%,53.4%,56.5%,49.7%,61.3%,69.9%,49.1%,47.7%,55.3%,72.6%,64%
"CS(=O)(=O)CCNCc1ccc(-c2ccc3ncnc(Nc4ccc(OCc5cccc(F)c5)c(Cl)c4)c3c2)o1 [lapatinib] + COc1cc2c(Oc3ccc4[nH]c(C)cc4c3F)ncnc2cc1OCCCN1CCCC1 [cediranib] (first compound 4 µM, partner dose 2 µM)",9.45%,90.5%,69.6%,76.1%,77.6%,72.6%,77.7%,67.1%,10%,66.7%,59.9%,69.5%,66%,55.3%,74%,28.1%,93%,64.5%,75%,65.1%
"CNC(=O)c1cc(Oc2ccc(NC(=O)Nc3ccc(Cl)c(C(F)(F)F)c3)cc2)ccn1 [sorafenib] + COc1ccc(Cl)c(Nc2nc3ccccc3nc2NS(=O)(=O)c2cccc(NC(=O)C(C)(C)N)c2)c1 [XL147] (first compound 2 µM, partner dose 4 µM)",81.2%,79.9%,65.2%,78.6%,189%,82.5%,86.3%,76.7%,86%,36.8%,75.9%,89.5%,99.6%,79%,71.8%,99.5%,81.6%,84.6%,85.7%,75.7%
"C[C@@H](Oc1cc(-c2cnn(C3CCNCC3)c2)cnc1N)c1c(Cl)ccc(F)c1Cl [Crizotinib] + COc1cc2c(Oc3ccc4[nH]c(C)cc4c3F)ncnc2cc1OCCCN1CCCC1 [cediranib] (first compound 1 µM, partner dose 2 µM)",101%,103%,132%,89.2%,75.8%,101%,119%,77.3%,75.2%,57.1%,70.2%,87.3%,84%,49.3%,77.6%,59.8%,53.1%,70.9%,71.6%,73.3%
"CNC(=O)c1cc(Oc2ccc(NC(=O)Nc3ccc(Cl)c(C(F)(F)F)c3)cc2)ccn1 [sorafenib] + CN(C)S(=O)(=O)c1ccc2c(c1)/C(=C/c1cc3c([nH]1)CCCC3)C(=O)N2 [SU6656] (first compound 2 µM, partner dose 2 µM)",59.6%,68.1%,70.1%,69.3%,112%,70.9%,98.9%,64.8%,44.4%,75.3%,60.1%,70.1%,74.6%,61.9%,84.9%,70%,49.7%,49.5%,48.9%,61%
"C[C@@H](Oc1cc(-c2cnn(C3CCNCC3)c2)cnc1N)c1c(Cl)ccc(F)c1Cl [Crizotinib] + CC1(C)NC(=O)N(c2ccc([N+](=O)[O-])c(C(F)(F)F)c2)C1=O [nilutamide] (first compound 1 µM, partner dose 5 µM)",86.3%,93.8%,72.9%,62%,105%,89.1%,111%,71.6%,96.8%,66.5%,57.6%,69.9%,84.3%,59.8%,84.1%,81.5%,53.4%,86.9%,63.6%,79.3%
"CNC(=O)c1cc(Oc2ccc(NC(=O)Nc3ccc(Cl)c(C(F)(F)F)c3)cc2)ccn1 [sorafenib] + C[C@]1(c2nc3c(C(N)=O)cccc3[nH]2)CCCN1 [Veliparib] (first compound 2 µM, partner dose 7 µM)",85.4%,81.5%,89.9%,74.5%,107%,93.5%,80.4%,72.3%,71%,78.3%,49.7%,97.1%,96.2%,97.4%,82.9%,86.4%,84.3%,97.6%,84.3%,82.2%
"CNC(=O)c1cc(Oc2ccc(NC(=O)Nc3ccc(Cl)c(C(F)(F)F)c3)cc2)ccn1 [sorafenib] + C=CCn1c(=O)c2cnc(Nc3ccc(N4CCN(C)CC4)cc3)nc2n1-c1cccc(C(C)(C)O)n1 [MK1775] (first compound 2 µM, partner dose 0.1 µM)",83%,103%,81.9%,59%,95.1%,95.5%,129%,73.7%,67.6%,82.2%,51.2%,92.5%,83.6%,54.8%,88.9%,82.2%,74%,87.3%,59.2%,78.4%
"CN1CCN(c2ccc3nc(-c4c(N)c5c(F)cccc5[nH]c4=O)[nH]c3c2)CC1 [Dovitinib] + NC(=O)Nc1cc(-c2cccc(F)c2)sc1C(=O)N[C@H]1CCCNC1 [AZD7762] (first compound 0.5 µM, partner dose 0.1 µM)",72.2%,94.3%,93.7%,58.4%,72.3%,74.3%,71.1%,50.9%,37.2%,92.3%,27.8%,53.6%,92.9%,75.8%,93.6%,65.5%,59.8%,77.8%,48.5%,50.7%
"CNC(=O)c1cc(Oc2ccc(NC(=O)Nc3ccc(Cl)c(C(F)(F)F)c3)cc2)ccn1 [sorafenib] + CC(=O)c1c(C)c2cnc(Nc3ccc(N4CCNCC4)cn3)nc2n(C2CCCC2)c1=O [palbociclib] (first compound 2 µM, partner dose 0.2 µM)",75.4%,72.4%,74.6%,59.7%,119%,82.3%,65.7%,54.4%,51.3%,50.1%,50%,65.4%,73.5%,70.8%,87.8%,79.5%,52.9%,48.1%,72.3%,69.8%
